Measured values: the supplement of paper PMC8948288
The sequences are guide strands of siRNAs; only the seed at positions 2 to 7 varies.

How the values were obtained:
[1] = tested on: GL261; experiment: cell viability relative to siNT1 (ATP content); H4 human neuroglioma and GL261 mouse glioma; higher = less toxic; conditions: siRNA concentration 25 nM; 96 h; mouse
Procedure: (§1)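 Arrayed screen of all 4096 6mer seeds. Each seed sits at guide-strand positions 2-7 of a neutral 19mer siRNA backbone (siNT1-based, passenger strand 2'-O-methyl modified at positions 1-2 to block RISC loading, 3' DNA overhangs). The guide strand is built here as U + seed + ACAUGUAAACCA. Cells were reverse transfected in triplicate in 384-well plates (H4 at 10 nM, GL261 at 25 nM) with Lipofectamine RNAiMAX. Viability was read as ATP content (CellTiter-Glo) 96 h after transfection and normalised to siNT1 (%).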

[2] = tested on: H4; experiment: as above; conditions: siRNA concentration 10 nM; 96 h; human
Procedure: as §1
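Note: cells reverse transfected with siRNA duplexes via lipid reagent, ATP read by luminescence, triplicate wells, values scaled to mean viability with non-targeting control siNT1.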

Row | Sequence | cell viability [1] [%] | cell viability [2] [%]
1 | UACGCUUACAUGUAAACCA | 59.1 | 116
2 | UACGGAAACAUGUAAACCA | 59.4 | 96.8
3 | UACGGACACAUGUAAACCA | 28.5 | 50.5
4 | UACGGAGACAUGUAAACCA | 61.7 | 81.4
5 | UACGGAUACAUGUAAACCA | 54.1 | 84.2
6 | UACGGCAACAUGUAAACCA | 63.4 | 66.9
7 | UACGGCCACAUGUAAACCA | 18.2 | 55.3
8 | UACGGCGACAUGUAAACCA | 52 | 78.5
9 | UACGGCUACAUGUAAACCA | 35.9 | 37.9
10 | UACGGGAACAUGUAAACCA | 56.8 | 80.6
11 | UACGGGCACAUGUAAACCA | 17.8 | 57.9
12 | UACGGGGACAUGUAAACCA | 41.7 | 51.9
13 | UACGGGUACAUGUAAACCA | 36.5 | 59
14 | UACGGUAACAUGUAAACCA | 52.7 | 80.3
15 | UACGGUCACAUGUAAACCA | 28.4 | 40.7
16 | UACGGUGACAUGUAAACCA | 52.7 | 94.3
17 | UACGGUUACAUGUAAACCA | 38.9 | 68.4
18 | UACGUAAACAUGUAAACCA | 74.3 | 84.7
19 | UACGUACACAUGUAAACCA | 62.4 | 72

Row | Sequence | cell viability [1] [%] | cell viability [2] [%]
20 | UACGUAGACAUGUAAACCA | 60.3 | 99.3
21 | UACGUAUACAUGUAAACCA | 61.3 | 91.2
22 | UACGUCAACAUGUAAACCA | 59 | 80.4
23 | UACGUCCACAUGUAAACCA | 24.6 | 48.8
24 | UACGUCGACAUGUAAACCA | 65.7 | 70.9
25 | UACGUCUACAUGUAAACCA | 52.1 | 64.8
26 | UACGUGAACAUGUAAACCA | 51.6 | 99.1
27 | UACGUGCACAUGUAAACCA | 48.8 | 57.7
28 | UACGUGGACAUGUAAACCA | 58.8 | 73
29 | UACGUGUACAUGUAAACCA | 50.3 | 61.4
30 | UACGUUAACAUGUAAACCA | 64.9 | 84.7
31 | UACGUUCACAUGUAAACCA | 60.1 | 77.7
32 | UACGUUGACAUGUAAACCA | 69.5 | 110
33 | UACGUUUACAUGUAAACCA | 53.6 | 77.7
34 | UACUAAAACAUGUAAACCA | 72.4 | 98.1
35 | UACUAACACAUGUAAACCA | 52.2 | 78
36 | UACUAAGACAUGUAAACCA | 63.7 | 108
37 | UACUAAUACAUGUAAACCA | 73.7 | 116
38 | UACUACAACAUGUAAACCA | 70 | 91.3

Row | Sequence | cell viability [1] [%] | cell viability [2] [%]
39 | UACUACCACAUGUAAACCA | 32.4 | 63.3
40 | UACUACGACAUGUAAACCA | 67 | 69.1
41 | UACUACUACAUGUAAACCA | 60.2 | 62
42 | UACUAGAACAUGUAAACCA | 60.7 | 108
43 | UACUAGCACAUGUAAACCA | 29 | 30.6
44 | UACUAGGACAUGUAAACCA | 62.7 | 75
45 | UACUAGUACAUGUAAACCA | 54.5 | 67.9
46 | UACUAUAACAUGUAAACCA | 69.3 | 113
47 | UACUAUCACAUGUAAACCA | 63.8 | 63.6
48 | UACUAUGACAUGUAAACCA | 63.1 | 102
49 | UACUAUUACAUGUAAACCA | 67.6 | 69.7
50 | UACUCAAACAUGUAAACCA | 52 | 100
51 | UACUCACACAUGUAAACCA | 40.4 | 78.9
52 | UACUCAGACAUGUAAACCA | 44.7 | 85.6
53 | UACUCAUACAUGUAAACCA | 51 | 80.4
54 | UACUCCAACAUGUAAACCA | 55.9 | 76.8
55 | UACUCCCACAUGUAAACCA | 35.8 | 60.1
56 | UACUCCGACAUGUAAACCA | 53.6 | 81.4
57 | UACUCCUACAUGUAAACCA | 21.5 | 17.2
